In PubChem BioAssay AID488969 (Vanderbilt High Throughput Screening Facility, 2010):
The full ranking holds about 110,000 compounds; the median of “z-score” is about -0.1, and the highest 2% start at about 2. Some of the results follow. Activity calls are given as the source filed them.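 Rule for the calls: active = z-score in the third read window above 3 or below -3; inactive = the rest.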

These molecules were tested against Metabotropic glutamate receptor 8 (Rattus norvegicus) (UniProt P70579) (assay: mGluR8 Gi/Go-coupled signaling modulation – cell-based, rat, thallium flux, HTS, primary screen (AID 488969)). Conditions: HEK293 rat mGluR8, GIRK (G protein-gated inwardly rectifying potassium channel) thallium flux, FluoZin2; at 10 µM; stronger effect = higher value; submaximal glutamate (EC20) added with thallium.
Chain of UniProt P70579 (P70579 whole entry, looked up): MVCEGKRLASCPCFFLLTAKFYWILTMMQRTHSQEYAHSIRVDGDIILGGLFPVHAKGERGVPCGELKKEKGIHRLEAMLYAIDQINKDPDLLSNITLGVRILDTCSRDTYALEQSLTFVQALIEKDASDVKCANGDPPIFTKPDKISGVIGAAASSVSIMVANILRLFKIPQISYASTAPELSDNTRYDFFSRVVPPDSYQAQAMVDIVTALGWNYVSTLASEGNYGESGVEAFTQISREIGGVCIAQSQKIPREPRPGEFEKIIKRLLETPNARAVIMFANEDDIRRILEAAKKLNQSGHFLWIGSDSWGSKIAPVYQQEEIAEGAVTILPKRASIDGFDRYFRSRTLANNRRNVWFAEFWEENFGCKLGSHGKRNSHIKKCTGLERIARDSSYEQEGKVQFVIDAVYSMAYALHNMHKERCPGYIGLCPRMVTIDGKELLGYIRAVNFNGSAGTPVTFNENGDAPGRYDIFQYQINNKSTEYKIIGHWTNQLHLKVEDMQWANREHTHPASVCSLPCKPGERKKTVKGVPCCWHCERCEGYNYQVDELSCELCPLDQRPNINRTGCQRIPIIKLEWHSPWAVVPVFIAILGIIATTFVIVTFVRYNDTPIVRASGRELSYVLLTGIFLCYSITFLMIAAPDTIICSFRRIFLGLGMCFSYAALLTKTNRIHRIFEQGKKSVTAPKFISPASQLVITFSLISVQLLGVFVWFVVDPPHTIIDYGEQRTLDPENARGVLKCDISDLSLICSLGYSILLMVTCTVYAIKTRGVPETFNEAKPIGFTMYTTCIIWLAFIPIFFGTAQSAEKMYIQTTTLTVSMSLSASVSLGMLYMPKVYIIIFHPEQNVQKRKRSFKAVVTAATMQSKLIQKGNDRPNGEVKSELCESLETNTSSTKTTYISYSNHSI

Structure (SMILES) | z-score
CC1CCCCN1Cc1c(C#N)c2ccccc2n1C (configuration not stated) | -1.44
COc1ccnc(Oc2ccc(C)cc2)c1C#N | -0.0228
Cc1c2cnn(CC(=O)O)c(=O)c2c(C)n1Cc1ccccc1 | -0.192
COc1ccc(C(=O)N/N=C/C(Br)=C/c2ccccc2)cc1 | 0.231
COC(=O)c1ccc(-n2c(C)nc(=O)c(-c3ccccc3)c2C)cc1 | 0.123
O=C(O)C1CCN(C(=O)OCc2ccccc2)CC1 | -0.336
COC(=O)Cc1ccc(NC(=S)NCc2ccccc2)cc1 | -0.185
Cc1cc(C)cc(-c2nnc(SCC(=O)NCc3cccs3)o2)c1 | -0.232
Cc1ccc(C)c(S(=O)(=O)NCc2ccncc2)c1 | 0.836
CCC(CC)c1nnc(NC(=O)c2cccc(S(=O)(=O)N3CCc4ccccc43)c2)s1 | 0.234
CC(C)COP(=O)(OCC(C)C)C(Nc1ccccc1)c1ccc(F)cc1 (configuration not stated) | -0.0643
COCCn1c(SCC(=O)NCc2ccccc2)nnc1-c1ccco1 | 0.995
CCCNC(=O)c1cc(-c2ccc(Br)cc2)on1 | -0.133
CCOC(=O)n1c(SCC(N)=O)nc2ccccc21 | -0.291
COc1cccc(C=Nc2ccccc2C(=O)Nc2nccs2)c1OC | 0.364
COC(=O)c1sccc1NC(=O)c1c(C)cc(=O)oc1C | -0.28
CC(C)CNC(=O)COc1ccc(Sc2ccc(OCC(=O)NCC(C)C)cc2)cc1 | -0.033
Cc1ccc(-c2nnc(SCC(=O)Nc3ccc4c(c3)OCCO4)n2N)cc1 | active: 14.1
Cc1cccc(C(=O)N/N=C/c2ccc(OCC(=O)N3CCCCC3)cc2)c1 | -0.129
O=C(c1nn(-c2ccccc2)c(=O)c2ccccc12)N1CCN(c2ccccn2)CC1 | -1.04
Cc1cccc(NC(=S)Nc2cccc(C(F)(F)F)c2)n1 | 0.00721
Cc1ccccc1OCC(=O)N/N=C/c1ccco1 | 0.0836
O=C(CCNC(=O)Cn1ccc2ccccc2c1=O)NCCN1CCN(c2cccc(Cl)c2)CC1 | -0.463

Structure (SMILES) | z-score
CC(C)(C)NC(=O)C(c1cccs1)N(CC1CCCO1)C(=O)c1ccc(-c2ccccc2)[nH]1 (configuration not stated) | -1.41
Cc1ccccc1NC(=O)c1ccc(CN2CCc3ccccc3C2)cc1 | -0.165
Cc1nnc(SCC(=O)Nc2cc(-c3cc(C)c(C)cc3C)nn2-c2ccccc2)s1 | -0.106
O=C(Nc1cc(Oc2ccc(Cl)cc2)cc([N+](=O)[O-])c1)c1ccco1 | -0.326
COc1ccc(C(=S)Nc2ccc(C)cc2)cc1 | 0.176
CCOC(=O)C1CN(S(=O)(=O)c2ccccc2)C1 | -0.112
COCCn1nnnc1CN1CCOCC1 | 0.018
CCOc1ccccc1Nc1nc(N)nc(CSc2nccc(C)n2)n1 | 0.0399
CCOC(=O)c1c(Nc2ccccc2)sc(/C=C2\C=Nc3ccccc32)c1O | 0.0111
Cc1cccc(NC(=S)NC(NC(=O)OCc2ccccc2)C(Cl)(Cl)Cl)c1 (configuration not stated) | 0.6
O=C(CC1NCCNC1=O)OCCCc1ccccc1 (configuration not stated) | 1.22
Brc1ccc(OCCCN2CCOCC2)cc1 | -0.0547
CC(=O)NS(=O)(=O)c1ccc(NC(=O)COc2ccc(C(=O)c3ccccc3)cc2)cc1 | 0.359
Fc1cccc(Cl)c1Cn1nnc2c(NCc3ccccn3)ncnc21 | -1.36
CCCC/S(CC1CC1(Cl)Cl)=N\S(=O)(=O)c1ccc(C)cc1 (configuration not stated) | 0.0545
Cc1ccc(/C=C/C2=NN(Cc3ccccc3Cl)C(=O)CC2)cc1 | -0.163
CC1C/C(=N/NC(=O)c2ccc(CSc3nc4ccccc4[nH]3)cc2)CC(C)(C)C1 (configuration not stated) | -0.00645
O=C(NN1CCOCC1)c1cc(-c2ccc(Br)cc2)nc2ccccc12 | 2.02
COc1ccc(-c2nnc(SCC(=O)NCc3ccco3)n2C)cc1 | 0.202
CCC(=O)NCCc1c[nH]c2ccccc12 | -0.65
Cn1c(SCC(=O)N2c3ccccc3CCc3ccccc32)nnc1-c1ccc(O)cc1 | active: 5.88
c1cncc(-c2noc(CC3CCCCC3)n2)c1 | -0.621
O=C1NC(=O)C2(CCc3ccccc32)N1 (configuration not stated) | 0.222

Structure (SMILES) | z-score
CN1C(=O)NC(c2ccccc2)C2=C1CN(Cc1ccccc1)C2=O (configuration not stated) | active: 7.33
Cc1ccc(OCc2nnc(SCC(=O)N3c4ccccc4Sc4ccc(Cl)cc43)o2)cc1 | -0.0543
Cc1[nH]c2ccccc2c1N=Nc1ccccc1C(=O)O | -0.0857
CC(=O)Nc1ccc(S(=O)(=O)NCCc2ccccc2)cc1 | -0.111
Cc1ccccc1NC(=S)NC1(C)CCS(=O)(=O)C1 (configuration not stated) | 0.0265
Cc1cc(C(F)(F)F)nn1Cc1n[nH]c(=S)n1Cc1ccccc1 | 1.27
COC(=O)c1ccccc1NC(=O)N1CSC[C@H]1C(=O)OC | -0.0884
CCOC(=O)N1CCN(C(=O)c2oc3ccc(S(=O)(=O)N4CCCCCC4)cc3c2C)CC1 | -0.281
COc1ccc(CN(C)Cc2nc3scc(-c4ccccc4)c3c(=O)[nH]2)cc1OC | -0.276
O=C(Nc1ccccc1-c1ccccc1)NC1CCN(CC(=O)N2CCOCC2)CC1 | 0.57
COc1ccc(CNC(=O)C(CCSC)NC(=O)c2ccco2)cc1 (configuration not stated) | 0.0134
CCCNS(=O)(=O)c1ccc(CCC(=O)N2CCN(CC)CC2)cc1 | 0.133
CCCOc1cccc(-c2cc(C(=O)NNC(=S)NCC)c3ccccc3n2)c1 | 0.0683
CC(=O)NC(CCS(C)(=O)=O)C(=O)Nc1cccc(C)c1 (configuration not stated) | -0.274
Cc1csc(SCC(=O)NCc2cccs2)n1 | 0.824
CSc1nnc(-c2sc3cc(C(F)(F)F)cnc3c2-c2ccccc2)n1C | -1.06
NC1=NC(=O)/C(=C\c2cccs2)S1 | -0.0766
Cn1c(=O)c2c(nc(SCC(=O)Nc3ccccc3N3CCCCC3)n2C)n(C)c1=O | 0.726
CCC(=O)Nc1nc(-c2ccc3c(c2)OCCO3)cs1 | -0.0358
N#C/C(=C/c1ccc(N2CCOCC2)o1)c1ccc(Br)cc1 | -0.0495
Cc1ccc(Oc2ccc(Oc3ccc(C)cc3)nn2)cc1 | -0.0077
CCC1=NN(C(=O)C(=O)Nc2ccccc2OC)C(O)(C(F)(F)F)C1 (configuration not stated) | -0.112
C=CCN1C(=O)C2(c3ccccc31)C1CCCC=C1C(C#N)=C(N)C2(C#N)C#N (configuration not stated) | 0.086

Structure (SMILES) | z-score
O=C(Nc1ccon1)c1cccc(S(=O)(=O)N2CCCC2)c1 | 0.0728
Cc1ccc2nc3c(cc(C(=O)NCCCn4ccnc4)n3C)c(=O)n2c1 | -0.172
Cc1ccc(NC(=O)CCNS(=O)(=O)c2ccccc2)c(C(=O)c2ccccc2)c1 | -0.33
Cc1[nH]n(C(N)=S)c(=O)c1N=Nc1ccc(S(=O)(=O)N2CCCC2)cc1 | 0.339
Cc1cccc(C)c1NC(=O)C(c1cccc([N+](=O)[O-])c1)N(C)C(=O)c1ccccn1 (configuration not stated) | -0.125
CC(NC(=O)CCCCCN1C(=O)c2ccccc2C1=O)c1ccc2c(c1)CCCC2 (configuration not stated) | -0.602
COc1ccc2c(c1)c(C(C)=O)c(C)n2-c1ccccc1 | -1.12
Cn1c(-c2ccc(F)cc2)cnc1NCc1cccc(F)c1 | -0.013
CCCCC(=O)Nc1ccc(C(=O)NCCCn2ccnc2)cc1 | 0.21
CCOC(=O)C1=C(O)C(=O)N(c2ccc(S(N)(=O)=O)cc2)C1c1ccccc1 (configuration not stated) | active: -4.02
CCCCC/C=N\NC(=O)Cc1ccc([N+](=O)[O-])cc1 | -0.066
CCOC(=O)CC(NC(=O)c1cc2cc(Br)ccc2oc1=O)c1cccc([N+](=O)[O-])c1 (configuration not stated) | -0.0679
CC(NC(=O)c1ccc(CS(=O)(=O)Cc2ccccc2F)o1)c1ccc2c(c1)OCCO2 (configuration not stated) | 0.0841
CC(=O)COc1ccc2c(C)c(C)c(=O)oc2c1 | -0.282
CCc1ccc(-c2csc3ncn(CC(=O)N4CCOCC4)c(=O)c23)cc1 | -0.253
COc1ccc(N(CC(=O)Nc2cccc(C(=O)O)c2)S(=O)(=O)c2c(C)noc2C)cc1 | -0.205
CCOC(=O)CNC(=O)Nc1ccccc1C(=O)OC | -0.365
CC1CCCCC1NC(=O)COC(=O)c1ccc(S(=O)(=O)NCc2ccco2)cc1 (configuration not stated) | -0.0725
CCC(C)NC(=O)C1CCN(S(=O)(=O)c2cccs2)CC1 (configuration not stated) | 0.377
CCOC1CC(C)(C)NC(=S)N1 (configuration not stated) | -0.234
COc1ccccc1OCCC(=O)OCC(=O)NC(C)c1ccccc1 (configuration not stated) | 0.983
Cc1ccccc1-n1c(C)n[nH]c1=S | 0.295
CC(=O)NS(=O)(=O)c1ccc(NC(=O)CCc2ccccc2)cc1 | 0.918

Structure (SMILES) | z-score
COc1cc(C)nc(N2CCC(C(=O)NC3CCCCC3)CC2)n1 | 0.34
CC(=O)c1ccc(NC(=S)N2CC(C)CC(C)C2)cc1 (configuration not stated) | -0.208
COC(=O)C1=C(O)CSC1=Nc1cccc(C(F)(F)F)c1 | -0.199
CC(C)C(CCNC(=O)CC(Cc1ccccc1)c1ccco1)c1ccco1 (configuration not stated) | -0.262
CCCCN(C(=O)NC(=O)Nc1ccccc1OC)S(C)(=O)=O | -0.271
CCSc1nc2ccccc2n1Cc1nc(N)nc(N(C)C)n1 | -0.509
O=C(Nc1ccccc1)Nc1nnc(Cc2ccc([N+](=O)[O-])cc2)s1 | -0.142
CCC(=O)Nc1ccc(S(=O)(=O)NCc2ccco2)cc1 | -1.8
Cc1nc(SCC(=O)NC(C)c2ccccc2)c2oc3ccccc3c2n1 (configuration not stated) | -0.958
Cc1cc(NC(=O)Cc2cccs2)no1 | -0.123
O=C(NCc1ccc(F)cc1)c1cc2c(s1)CCCC2 | -0.144
O=S(=O)(NCC(c1cccnc1)N1CCN(c2ccc(F)cc2)CC1)c1ccccc1 (configuration not stated) | -0.412
COC(=O)c1nnn(-c2nonc2N)c1CN1CCc2ccccc21 | -0.678
CCn1c(SCC(N)=O)nnc1-c1ccc2[nH]c(C)c(C)c2c1 | -0.675
O=C(NCc1ccco1)c1cc(-c2cccs2)on1 | -0.182
Cc1ccc(S(=O)(=O)N2CCN(C(=O)CN3CCOCC3)C2C(C)C)cc1 (configuration not stated) | -0.331
Cc1nnc(SCC(=O)Nc2ccc(-c3nc4ccccc4s3)cc2)s1 | -0.0598
COc1ccc(/C=C/C(=O)NC(=S)NNC(=O)Cc2cccs2)cc1OC | -0.448
CCOC(=O)N1CCN(CC(O)COCCC23CC4CC(CC(C4)C2)C3)CC1 (configuration not stated) | 1.96
Cc1ccc(S(=O)(=O)c2c(N)n(Cc3ccco3)c3nc4ccccc4nc23)cc1 | -1.78
